In PubChem BioAssay AID686979 (National Center for Advancing Translational Sciences (NCATS), 2013):
Hit rate of the full screen: of about 420,000 compounds, about 50,000 (12%) were called active. Inconclusive means that the source gave no clear call. Such entries were picked first, then a sample of the others. The call rests on the fitted dose curve; in most records, active means well fitted inhibition curve with a large enough effect; inconclusive means small, poorly fitted or top-dose-only effect; inactive means flat fitted curve, though single readings scatter. Potencies of inconclusive entries are left out as doubtful fits.

experiment: qHTS for Inhibitors of human tyrosyl-DNA phosphodiesterase 1 (TDP1): qHTS in cells in presence of CPT; details: chicken DT40 Tdp1-/-;hTDP1 cells + 20 nM CPT, ATP luminescence, 48 h; activity change, negative = growth inhibition: at 46.2 µM (top of the series) unless noted; further: nearly all actives have a fitted effect of over 55% in size
Outline: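 Chicken DT40 Tdp1-/- cells stably complemented with human TDP1 were seeded at 400 cells/well in medium containing 20 nM camptothecin, exposed to pin-transferred compounds, and grown at 37 °C for at least 48 hr. Viability was read as ATP luminescence.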
On the % scale 0 is the no-effect control and ±100 the full control effect; potency means the concentration at half of the fitted maximal effect; tags describe the fitted curve by direction and shape.

Row | SMILES | Potency | activity change, negative = growth inhibition
1 | CCOC(=O)N1CCN(C(=O)CN(c2ccccc2F)S(=O)(=O)c2ccc(C)cc2)CC1 | inconclusive [inhibitor, partial curve] | –
2 | COc1cc(S(=O)(=O)N(Cc2cccs2)C2CC2)ccc1-n1cnnn1 | inconclusive [inhibitor, partial curve] | –
3 | O=C(Oc1cccc(OC(=O)N2CCCCC2)c1)N1CCCCC1 | inconclusive [inhibitor, single point] | –
4 | Oc1ccc(-c2csc(-c3c[nH]c4ccccc34)n2)c(O)c1 | inconclusive [inhibitor, single point] | –
5 | CCOC(=O)Cc1cc(-c2ccc(F)cc2)nc2ccc3ccccc3c12 | inconclusive [inhibitor, partial curve, poor fit] | –
6 | CC1CCN(c2c(NCC3CCC(C(=O)N4CCCCC4)CC3)c(=O)c2=O)CC1 (centres undefined) | inactive | –
7 | CSc1ccc(CN(C)C(=O)CCNS(=O)(=O)c2ccc(C)c(C)c2)cc1 | inconclusive [inhibitor, single point] | –
8 | COc1cccc(C(=O)CC(=O)C(=O)Nc2ccc(C)cc2Cl)c1 | inconclusive [inhibitor, single point] | –
9 | CC(C)(C)NC(=O)C(c1ccc(-c2ccccc2)cc1)N(C[C@H]1CC[C@@H]([C@@H]2CC[C@H](CO)O2)O1)C(=O)c1ccc(C(C)(C)C)cc1 (some centres undefined) | inconclusive [inhibitor, single point] | –
10 | COC(=O)c1c(NC(=O)Cc2coc3cc(C)ccc23)sc2c1CCC2 | inactive | –
11 | Cc1ccc(Cl)cc1NC(=O)CSc1nccn1C | inactive | –
12 | COc1ccc(C(CNC(=O)CNC(=O)c2cccc(F)c2)N2CCOCC2)cc1 (centres undefined) | inactive | –
13 | O=C(NC(=S)Nc1ccccc1N1CCOCC1)c1ccco1 | inconclusive [inhibitor, single point] | –
14 | CCOc1ccc(NC(=O)CN(C)C(=O)CCC2CCCCC2)cc1OCC | inconclusive [inhibitor, single point] | –
15 | Cc1cccc(OCCNc2nc3c(c(=O)n(C)c(=O)n3C)n2C)c1 | active: 16.4 µM | –
16 | COc1ccc(OC)c(NC(=O)CSc2ccc3ccccc3c2)c1 | inconclusive [inhibitor, partial curve] | –
17 | O=C(NCc1cccnc1)c1ccc(NC(=O)c2cccc([N+](=O)[O-])c2)cc1 | active: 14.6 µM | –
18 | CCOC(=O)c1noc2nc(C)n(CC(=O)NC(C)CC)c(=O)c12 (centres undefined) | inactive | –
19 | O=C(CCc1nnc(CCCCc2ccccc2)o1)NC(c1cccnc1)C(F)(F)F (centres undefined) | inconclusive [inhibitor, single point] | –
20 | COc1ccc(NC(=O)Cn2cnc3c(cnn3-c3ccc(C)c(C)c3)c2=O)c(OC)c1 | inactive | –
21 | c1ccc2c(N3CCCCC3)ncnc2c1 | inconclusive [inhibitor, partial curve] | –
22 | COc1cccc(/C=N/NC(=O)CNC(=O)C2COc3ccccc3O2)c1O (centres undefined) | active: 5.8 µM | –
23 | CCOC(=O)c1nn(-c2cccc(OC)c2)c2nc(Nc3ccccc3)cc(=O)n12 | inconclusive [inhibitor, single point] | –

Row | SMILES | Potency | activity change, negative = growth inhibition
24 | O=C(ONc1ccc(N=NC(=O)c2ccccc2O)cc1)c1ccccc1 | active: 7.31 µM | –
25 | Cc1ccsc1C1NC(=O)c2ccccc2N1 (centres undefined) | inconclusive [inhibitor, single point] | –
26 | COCCCN(C(=O)Cc1csc(-c2cccc(Cl)c2)n1)c1c(N)n(Cc2ccccc2)c(=O)[nH]c1=O | inconclusive [inhibitor, single point] | –
27 | CC(=O)c1cccc(NC(=O)CSc2nc(=O)n(Cc3ccco3)c3c2CCC3)c1 | inactive | –
28 | CCOc1ccccc1CNC(=O)c1ccc2c(c1)N(Cc1ccc(C)cc1)CCS2 | active: 18.4 µM | –
29 | CN(C)S(=O)(=O)c1cc(NC(=O)CN2CCN(c3ccccc3)CC2)ccc1Cl | inconclusive [inhibitor, single point] | –
30 | O=C(C1CCCN(S(=O)(=O)c2ccccc2)C1)N1CCN(c2ncccn2)CC1 (centres undefined) | inconclusive [inhibitor, partial curve] | –
31 | COc1cc(C(=O)NCCCc2nc3ccccc3n2Cc2cc(C)ccc2C)cc(OC)c1OC | inconclusive [inhibitor, single point] | –
32 | N#Cc1nc(-c2ccc(F)cc2)oc1NCc1ccccc1 | – | inconclusive: -31.8% [inhibitor]
33 | O=C1CC(Sc2nnnn2C2CCCCC2)C(=O)N1c1ccccc1 (centres undefined) | active: 2.91 µM | –
34 | Nc1cccc2c1C(=O)N(C(=O)/C=C/c1cccc(Br)c1)C2=O | active: 10.3 µM | –
35 | C#CCOCCOCCOCCNc1nc(N2CCN(C(=O)Cn3cc(CCCN=C(N)N)nn3)CC2)nc(N2CCN(C(=O)[C@H]([C@@H](C)CC)n3cc(CCC(=O)O)nn3)CC2)n1 | inconclusive [inhibitor, full curve, poor fit] | –
36 | CCCCN(CC)C(=O)c1nn(C)c2c1CSc1ccccc1-2 | inconclusive [inhibitor, single point] | –
37 | Cc1oc(-c2cccc(Cl)c2)nc1CS(=O)(=O)CC(=O)NC(C)CCc1ccccc1 (centres undefined) | inactive | –
38 | COc1ccc(CN(C)Cc2c(O)ccc3ccccc23)cc1 | inconclusive [inhibitor, single point] | –
39 | Cc1cccc(N2CCN(C(=O)COc3ccc4c(c3)CCC4)CC2C)c1 (centres undefined) | inconclusive [inhibitor, partial curve] | –
40 | Cc1cc(C)nc(NC(=O)CCC2CCCC2)c1 | inconclusive [inhibitor, single point] | –
41 | CC12Cc3ccc4ccccc4c3C=C1C[N+](C)(C)C2 (centres undefined) | inactive | –
42 | CS(=O)(=O)N(CC(=O)N1CCOCC1)c1cc(Cl)ccc1Cl | inactive | –
43 | CNC(=O)c1[nH]cnc1C(=O)N[C@@H](C)C(=O)OCc1ccccc1 | inconclusive [inhibitor, single point] | –
44 | O=c1oc(-c2ccccc2F)nc2c1cnn2-c1ccccc1 | inconclusive [inhibitor, single point] | –
45 | COC(=O)c1ccc(-c2c(-c3ccccc3)ncc3cc(OC)c(OC)cc23)cc1 | active: 20.6 µM | –
46 | COc1ccc(-c2noc(N3CCC(C(=O)Nc4cccc(OC)c4)CC3)n2)cc1 | active: 18.4 µM | –

Row | SMILES | Potency | activity change, negative = growth inhibition
47 | COc1ccc(N2CCN(C(=O)CCN3C(=O)c4ccccc4S3(=O)=O)CC2)cc1 | inactive | –
48 | O=C(c1cccc(C(=O)N2CCN(c3ccccc3F)CC2)c1)N1CCN(c2ccccc2F)CC1 | inconclusive [inhibitor, single point] | –
49 | CCOC(=O)C1CCN(c2cc(C)nc3ccc(OC)cc23)CC1 | inconclusive [inhibitor, partial curve] | –
50 | Cc1cc(Cl)ccc1NC(=S)NCc1ccc(S(N)(=O)=O)cc1 | – | inconclusive: -30.4% [inhibitor]
51 | CC1(C)O[C@H]2[C@@H](O1)[C@@H](C(=O)Nc1ccccc1C(F)(F)F)O[C@@H]1OC(C)(C)O[C@@H]12 | inconclusive [inhibitor, single point] | –
52 | O=C(NCCc1ccccc1Cl)C1CCN(c2nc3ccccc3nc2C(F)(F)F)CC1 | inconclusive [inhibitor, partial curve] | –
53 | CCOc1ccc(Br)cc1C(=S)N1CCCC1 | inactive | –
54 | COc1ccc(C(NC(=O)CN2C(=O)NC3(CCc4ccccc43)C2=O)c2ccc(OC)cc2)cc1 (centres undefined) | inconclusive [inhibitor, single point] | –
55 | Cn1nc(C(=O)Nc2cccnc2)c2ccccc2c1=O | inconclusive [inhibitor, single point] | –
56 | O=C(CSc1ccc(-c2cccs2)nn1)Nc1ccccc1C(F)(F)F | inconclusive [inhibitor, single point] | –
57 | COc1cc(OC)cc(-c2c(C#Cc3ccsc3)c3cc(-c4ccc(OC)c(F)c4)ccc3n2C)c1 | inactive | –
58 | O=C1CCCC2=C1C(c1cccs1)Nc1ccc3ncccc3c12 (centres undefined) | active: 15.8 µM | –
59 | CCc1nc2ccc(C(=O)NCCOc3ccc(OC)cc3)cn2c1N(C)Cc1ccc(N(C)C)cc1 | active: 23.1 µM | –
60 | Cc1ccc(C(=O)c2c3ccc(C(F)(F)F)cc3nn2CCC(N)=O)cc1 | inconclusive [inhibitor, single point] | –
61 | COc1ccc(Cl)cc1NC(=O)C(C)Sc1nc2c(c(=O)[nH]1)CCCC2 (centres undefined) | inconclusive [inhibitor, single point] | –
62 | O=C(COc1ccc(Cl)cc1)Nc1cnn(Cc2c(Cl)cccc2Cl)c1 | inactive | –
63 | Cc1cc(C)n(-c2ccc(S(=O)(=O)N3CCOCC3)cc2[N+](=O)[O-])n1 | inactive | –
64 | Cc1nc(NC(=O)C(C)(C)C)sc1-c1csc(N)n1 | inconclusive [inhibitor, single point] | –
65 | CCc1ccc(NC(=O)Cn2c(=O)n(CCC(C)C)c(=O)c3cccnc32)cc1 | inconclusive [inhibitor, partial curve, poor fit] | –
66 | O=C(Cc1ccc(Cl)cc1)N1CCOCC1 | – | inconclusive: -42.1% [inhibitor]
67 | CCCCCCC1CCC(c2nc(-c3ccncc3)no2)CC1 (centres undefined) | inconclusive [inhibitor, single point] | –
68 | CCOC(=O)N1CCc2c(sc3c2C(=O)NC(c2cc(OC)c(OC)c(OC)c2)N3)C1 (centres undefined) | active: 3.66 µM | –
69 | CCCCCC(=O)N1C[C@@H](O)[C@H](n2cc(-c3ccc(F)cc3)nn2)C[C@@H]1c1ccc(OC)cc1 | inconclusive [inhibitor, single point] | –
